According to PubChem BioAssay AID624417 (National Center for Advancing Translational Sciences (NCATS), 2012):
Hit rate of the full screen: of about 410,000 compounds, about 6,400 (1.6%) were called active. The shares of active, inactive and inconclusive entries below differ from those in the screen. The call rests on the fitted dose curve; in most records, active means well fitted inhibition curve with a large enough effect; inconclusive means small, poorly fitted or top-dose-only effect; inactive means no such curve, though single readings can be large or run the other way. Potencies of inconclusive entries are left out as doubtful fits.

target: Glucagon-like peptide 1 receptor (Homo sapiens) (UniProt P43220); test: qHTS of GLP-1 Receptor Inverse Agonists (Inhibition Mode); conditions: HEK293 GLP-1R CRE-luciferase, luminescence, 24 h, GLP-1R form is constitutively active; activity change, negative = inhibition: at 38.3 µM (top of the series) unless noted; further: nearly all actives have a fitted effect of over 55% in size
Method in brief: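 Inverse agonism was detected as reduced cAMP-driven luciferase luminescence after 24 h compound treatment. The cells were HEK293 clones expressing constitutively active human GLP-1R with the reporter. Reporter-only and GPR119 cell lines served as counterscreen controls.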
On the % scale 0 is the no-effect control and ±100 the full control effect; potency means the concentration at half of the fitted maximal effect; tags describe the fitted curve by direction and shape.

Sequence of UniProt P43220 (P43220 whole entry, looked up): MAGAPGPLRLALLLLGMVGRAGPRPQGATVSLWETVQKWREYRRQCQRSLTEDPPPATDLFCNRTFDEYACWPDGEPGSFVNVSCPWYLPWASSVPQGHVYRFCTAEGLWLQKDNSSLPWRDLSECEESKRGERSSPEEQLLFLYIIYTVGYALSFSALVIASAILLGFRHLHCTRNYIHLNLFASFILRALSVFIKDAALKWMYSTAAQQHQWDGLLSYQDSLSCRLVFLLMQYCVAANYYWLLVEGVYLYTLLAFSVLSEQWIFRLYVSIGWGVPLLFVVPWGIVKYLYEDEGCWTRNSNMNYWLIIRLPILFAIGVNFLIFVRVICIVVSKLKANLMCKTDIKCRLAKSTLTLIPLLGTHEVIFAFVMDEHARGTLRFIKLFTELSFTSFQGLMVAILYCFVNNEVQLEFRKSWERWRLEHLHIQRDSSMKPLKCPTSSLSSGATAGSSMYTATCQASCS

| SMILES | activity change, negative = inhibition | Potency |
| --- | --- | --- |
| Cc1ccccc1-c1cc2nc(NCCN3CCCC3)n(C)c(=O)c2s1 | inactive: -26.4% | – |
| O=C(NCCCCc1ccccc1)c1cccc(Br)c1 | – | inconclusive [inhibitor, partial curve, poor fit] |
| NC(=O)CC(NC(=O)Cc1cccc2ccccc12)c1ccc(N2CCC(Br)CC2)c([N+](=O)[O-])c1 (configuration not stated) | inactive: -24.2% | – |
| COC(=O)c1c(C)oc2ccc(NS(=O)(=O)c3cc(OC)ccc3OC)cc12 | – | inconclusive [inhibitor, full curve] |
| CC(C)C[C@H]1CNC(=S)N1CC1CCCN1C[C@H](Cc1ccccc1)N1C[C@H](Cc2ccc(O)cc2)N(CC2CCCCC2)C1=S (some centres not stated) | – | inconclusive [inhibitor, partial curve, poor fit] |
| O=C(NC(c1ccc(F)cc1)c1ccc2ccccc2n1)C1CCN(Cc2ccc(Oc3ccccc3)cc2)CC1 (configuration not stated) | – | inconclusive [inhibitor, single point] |
| Cc1sc(N=Nc2ccc(N(C)C)cc2)[n+]([O-])c1C | – | inconclusive [inhibitor, partial curve, poor fit] |
| CCn1cc(CN2CCN(CC(C)(C)C)C(CCO)C2)c2ccccc21 (configuration not stated) | – | inconclusive [inhibitor, single point] |
| CN(C)CCCn1c(=O)n(CCc2ccccc2)c(=O)c2c3c(sc21)CCCCC3 | – | inconclusive [inhibitor, full curve, poor fit] |
| O=C(c1ccc(Cl)cc1)N1CCCC(C(=O)N2CCN(c3ccccc3)CC2)C1 (configuration not stated) | inactive: 1.14% | – |
| CCOc1ccc(CCNC(=O)CN2N=C(c3ccccc3)CCC2=O)cc1OCC | inactive: 12.7% | – |
| Cc1ccc(S(=O)(=O)N2CCC(C(=O)OCC(=O)N(C)Cc3ccccc3)CC2)cc1C | – | inconclusive [inhibitor, partial curve, poor fit] |
| COc1ccc(NC2=Nc3ccccc3N3C2=Nc2c(c(C)nn2-c2ccc(C)cc2)C3c2cccnc2)cc1 (configuration not stated) | inactive: 13.3% | – |
| Cc1cc(C)c(NC(=S)NC(=O)c2ccc(-c3ccccc3)cc2)c(C)c1 | – | inconclusive [inhibitor, single point] |
| Nc1nonc1-n1nnc(C(=O)N/N=C/c2ccc(OCc3ccc(F)cc3)cc2)c1COc1ccccc1 | – | inconclusive [inhibitor, partial curve, poor fit] |
| O=[N+]([O-])c1cnc(Sc2ccncn2)c([N+](=O)[O-])c1 | inactive: -3.89% | – |
| NNC(=O)CNC(c1ccccc1)c1cc(Br)ccc1NC(=O)c1ccccc1Br (configuration not stated) | – | inconclusive [inhibitor, partial curve, poor fit] |
| C[C@H](NC(=O)OC(C)(C)C)C(=O)N/N=C/C1=Cc2ccccc2OC1 | – | inconclusive [inhibitor, single point] |
| CN(CCCC(=O)Nc1ccc(Br)cc1F)S(=O)(=O)c1ccccc1 | – | inconclusive [inhibitor, single point] |
| CCn1c(-c2ccccc2Cl)nn(CC(=O)Nc2ccccc2OC)c1=S | inactive: -17.7% | – |
| O=C1C(Cl)=C(Nc2ccccc2O)C(=O)N1CCc1ccccc1 | – | inconclusive [inhibitor, partial curve, poor fit] |
| Cn1c(=S)c2[nH]c(SCCC(C)(C)C)nc2n(C)c1=O | – | inconclusive [inhibitor, full curve, poor fit] |
| CN(C)C(CNC(=O)CN1C(=O)NC2(CCCC2)C1=O)c1ccccc1 (configuration not stated) | inactive: 17.2% | – |

| SMILES | activity change, negative = inhibition | Potency |
| --- | --- | --- |
| Cc1ccc(S[C@@H](CCN2CC[C@H](C(C)(C)C)CCC2=O)c2ccccc2)cc1 | – | active: 10 µM |
| O=C(c1cccc(S(=O)(=O)N2CCN(c3ccc(F)cc3)CC2)c1)N1CCCCCCC1 | – | inconclusive [inhibitor, single point] |
| CC(=O)N1CN(C2CCS(=O)(=O)C2)Cc2c1sc1c2CCCC1 (configuration not stated) | inactive: 5.15% | – |
| CC1CCN(C(=O)Cn2cc(C(F)(F)F)ccc2=O)c2ccccc2S1 (configuration not stated) | – | inconclusive [inhibitor, single point] |
| COc1ccc2[nH]cc(CCNC(=O)Nc3cc(C)cc(C)c3)c2c1 | – | inconclusive [inhibitor, partial curve, poor fit] |
| CCC(Nc1ccc(-c2nc(-c3cccnc3)no2)cc1[N+](=O)[O-])c1ccccc1 (configuration not stated) | inactive: 3.87% | – |
| Clc1cccc(CN2CCC(Cc3ccccc3)CC2)c1 | inactive: -28.9% | – |
| O=c1c2cccnc2n(Cc2cccc(F)c2)c(=O)n1Cc1ccc(F)cc1 | – | inconclusive [inhibitor, single point] |
| COc1cccc(CNc2cc(CSc3ccc(Cl)cc3)nc(C)n2)c1 | – | inconclusive [inhibitor, single point] |
| CCNC(=S)NNc1nc(N2CCOCC2)nc(N2CCOCC2)n1 | inactive: 2.43% | – |
| O=S(=O)(c1ccc(SCCOc2ccc(Cl)cc2)nc1)N1CCCC1 | – | inconclusive [inhibitor, single point] |
| COc1ccc2c(c1)c1c(c(=O)n(-c3cccc(C)c3)c(=O)n1CC(=O)NCCC1=CCCCC1)n2C | inactive: -3.75% | – |
| COc1ccccc1Nc1nc(-c2ccccc2)c(CC(=O)O)s1 | – | inconclusive [inhibitor, single point] |
| COc1cc2c(cc1OC)C(C)N(C(=O)c1cc(C)on1)CC2 (configuration not stated) | – | inconclusive [inhibitor, full curve, poor fit] |
| NC(=O)Cn1nc(-c2ccccc2)nc1-c1ccccc1 | inactive: -10.3% | – |
| FC(F)(F)c1cccc(N2CCC(N=CN3CCCCCC3)=N2)c1 | – | inconclusive [inhibitor, partial curve, poor fit] |
| Nc1cc(=O)nc(SCC(=O)Nc2ccccc2)n1CCc1ccccc1 | inactive: -8.05% | – |
| CC(C)N1CCc2c(sc(NC(=O)c3ccc4ccccc4c3)c2C(N)=O)C1 | – | inconclusive [inhibitor, full curve, poor fit] |
| Cc1c(/C=N/Nc2nc3ccccc3[nH]2)c2ccccc2n1C | – | inconclusive [inhibitor, single point] |
| O=C(Nc1cc(Cl)ccc1Cl)C1Cc2ccccc2O/C1=N\O (configuration not stated) | – | inconclusive [inhibitor, partial curve, poor fit] |
| CC(C)c1ccc(N(CC(=O)NCc2ccco2)C(=O)CCC(=O)Nc2nccs2)cc1 | – | inconclusive [inhibitor, single point] |
| O=C(NC1CC(=O)N(c2ccc(Cl)cc2)C1)c1cc2ccccc2o1 (configuration not stated) | inactive: 5.01% | – |
| CC(=O)Nc1ccc(Nc2ccc3cc(S(=O)(=O)N4CCCCC4)ccc3n2)cc1 | inactive: -8.62% | – |

| SMILES | activity change, negative = inhibition | Potency |
| --- | --- | --- |
| O=C(Nc1ccccc1C(F)(F)F)N1CCCCCC1 | – | inconclusive [inhibitor, single point] |
| CC(C)C(NC(=O)OCc1ccccc1)C(=O)OCC(=O)N1CCCCC1 (configuration not stated) | – | inconclusive [inhibitor, single point] |
| CC#CC(=O)N1CCC(Oc2cccc(C(=O)NCc3ccccn3)c2)CC1 | inactive: 8.09% | – |
| CCOC(=O)c1cccc(NC(=O)CCNS(=O)(=O)c2cc(Br)cnc2N)c1 | – | inconclusive [inhibitor, single point] |
| COCCCOc1cc(NCc2ccccc2)c2ncn(C(C)C)c2c1 | inactive: -13.8% | – |
| S=C(Nc1ccccc1)N1CCN(Cc2ccccc2)CC1 | – | inconclusive [inhibitor, single point] |
| CCn1c(/C=C/c2c(C)[nH]c3ccccc23)nc2ccccc2c1=O | – | inconclusive [inhibitor, full curve, poor fit] |
| Cc1ccccc1-c1nc(-c2ccccn2)no1 | – | inconclusive [inhibitor, full curve, poor fit] |
| O=C(Nc1ccc2ccccc2c1)N1CCCN(CCOc2ccccc2)CC1 | – | inconclusive [inhibitor, single point] |
| CCC(CO)Oc1cc(NC(=O)c2ccc(OC)cc2)c2ncn(C(C)C)c2c1 (configuration not stated) | inactive: 15.5% | – |
| CSc1nnc(NC(=O)c2nc(S(=O)(=O)Cc3cccc(C)c3)ncc2Cl)s1 | – | inconclusive [inhibitor, single point] |
| Cc1ccc(NC(=S)N2CCC(C(N)=O)(N3CCCCC3)CC2)c(C)c1 | – | inconclusive [inhibitor, single point] |
| O=C(Nc1nc2ccccc2[nH]1)c1ccc(F)cc1 | – | inconclusive [inhibitor, partial curve, poor fit] |
| CCN(c1ccccc1)S(=O)(=O)c1ccc(NC(=O)c2nc(S(C)(=O)=O)ncc2Cl)cc1 | – | inconclusive [inhibitor, single point] |
| CCOC(=O)c1cnc2ccc(OCC)cc2c1NCc1ccccc1OC | inactive: -10.9% | – |
| S=C(NCc1ccccn1)Nc1ccc(Cl)cc1 | – | inconclusive [inhibitor, single point] |
| COc1ccc(C(=O)CCC(=O)Nc2ccc(Cl)cc2)cc1 | – | inconclusive [inhibitor, single point] |
| OC(CNCC1CCCO1)Cn1c2ccccc2c2ccccc21 (configuration not stated) | – | inconclusive [inhibitor, single point] |
| COc1cc(NC(=O)c2ccno2)cc(C(=O)Nc2cccc(C(F)(F)F)c2)c1 | – | inconclusive [inhibitor, single point] |
| CCCCNC(=O)C1(C)CCCCN1C(=O)c1c(F)ccc(C)c1F (configuration not stated) | – | inconclusive [inhibitor, single point] |
| OCCC1CN(CCCc2ccccc2)CCN1CCc1ccccc1 (configuration not stated) | – | inconclusive [inhibitor, partial curve, poor fit] |
